Among the data in PubChem BioAssay AID1745853 (National Center for Advancing Translational Sciences (NCATS), 2022) are activity change, negative = inhibition values, retold here.

What all share (assay): Primary Screen for Target Class Profiling of Small Molecule Inhibitors of Methyltransferases
For assay [1], the target named is Glycine N-methyltransferase (Homo sapiens) (UniProt Q14749). The following applies: purified enzyme, MTase-Glo SAH luminescence; measured here: GNMT inhibition; at 40 µM; stronger effect = lower value. The method in brief:
(§1)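 Each enzyme was reacted with SAM and its substrate, with compounds tested once at 40 uM; SAH formed was read by MTase-Glo luminescence.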

The target of assay [2] is Guanidinoacetate N-methyltransferase (Homo sapiens) (UniProt Q14353). The following applies: purified enzyme, MTase-Glo SAH luminescence; measured here: GAMT inhibition; at 40 µM; stronger effect = lower value. The method in brief: as §1
In assay [3] the target is Histamine N-methyltransferase (Homo sapiens) (UniProt P50135). As to conditions: purified enzyme, MTase-Glo SAH luminescence; measured here: HNMT inhibition; at 40 µM; stronger effect = lower value. The method in brief: as §1
Assay [4] deals with Nicotinamide N-methyltransferase (Homo sapiens) (UniProt P40261). As to conditions: purified enzyme, MTase-Glo SAH luminescence; measured here: NNMT inhibition; at 40 µM; stronger effect = lower value. A digest of the protocol:
as §1

In assay [5] the target is Phenylethanolamine N-methyltransferase (Homo sapiens) (UniProt P11086). As to conditions: purified enzyme, MTase-Glo SAH luminescence; measured here: PNMT inhibition; at 40 µM; stronger effect = lower value. The method in brief: as §1

Some of the results follow. Shown are side measurements of this screen, not its main read-out; they come without a call.
% is set by controls: 0 for no effect and ±100 for the full control effect.

For `CSc1ccc(C(=O)c2[nH]c(=O)[nH]c2C)cc1`, the activity change, negative = inhibition in assay [1] was -11.6%; in assay [2], 9.31%; in assay [3], 6.02%; in assay [4], -7.68%; in assay [5], -0.603%.
In the same order, the values of `Cc1ccc(Cn2c(=O)c3ccccc3n3c(CCC(=O)NCc4ccc(F)cc4)nnc23)cc1` are -5.69%, 1.81%, -4.79%, 6.38% and -7.62%.
For the molecule `Cc1nc(NCCC2CCOC2)c2c(C)nn(C)c2n1` (stereo not given), the activity change, negative = inhibition in assay [1] is -3.06%; in assay [2], -3.11%; in assay [3] it was -0.469%; in assay [4], -6.22%; in assay [5], -2.29%.
For `O=c1[nH]nc2n1CCC(NS(=O)(=O)c1ccc(Cl)s1)CC2` (stereo not given), the activity change, negative = inhibition in assay [1] is 0.146%; in assay [2], -1.73%; in assay [3] it was 0.461%; in assay [4], 0.012%; in assay [5], 3.09%.
Turning to `Cc1cccc(Cn2nc3n(Cc4ccccc4)c(=O)c4ccc(C(=O)NC5CCCC5)cc4n3c2=O)c1`, the activity change, negative = inhibition in assay [1] is 3.69%; in assay [2], 0%; in assay [3], 4.96%; in assay [4], -0.692%; in assay [5], 2.61%.
In the same order, the values of `O=C(NCc1ccc(Cl)cc1)c1ccc2c(=O)[nH]c3c(C(=O)NC4CCCC4)sc(=S)n3c2c1` are -42.8%, 1.99%, -8.8%, -61.5% and -20.4%.
As for `CC(C(=O)Nc1cc(C#N)ccc1CCCC(=O)O)c1ccc(F)c2ccccc12` (stereo not given), the activity change, negative = inhibition in assay [1] is -5.79%; in assay [2] it was -5.54%; in assay [3], 2.48%; in assay [4], -20.8%; in assay [5], 0.586%.
For the molecule `Cc1ccc(NC(=O)Cn2c(=O)oc3cc(S(=O)(=O)N4CCCC4)ccc32)cc1`, the activity change, negative = inhibition in assay [1] was -1.06%; in assay [2], 4.91%; in assay [3], -0.154%; in assay [4], 12%; in assay [5], -9.73%.
With `CC1(C(=O)NC2CCCC2)Cn2c(cc3sccc32)C(=O)N1Cc1cccc(Cl)c1` (stereo not given), the activity change, negative = inhibition in assay [1] was -6.12%; in assay [2], 3.89%; in assay [3], -6.47%; in assay [4] it was -9.58%; in assay [5], -6.55%.
As to `CCC1c2ccc(C)n2CCN1C(=O)NCc1ccc(C)cc1` (stereo not given), the activity change, negative = inhibition in assay [1] is -1.93%; in assay [2], 3.64%; in assay [3], -4.13%; in assay [4], -1.41%; in assay [5] it was -5.8%.
For `COc1ccccc1CN1C(=O)c2ccc(-c3ccco3)n2CC1(C)C(=O)NC1CCCCC1C` (stereo not given), the activity change, negative = inhibition turned out to be 1.85% in assay [1]; 0.787% in assay [2]; 9.05% in assay [3]; 3.67% in assay [4]; 1.05% in assay [5].
On to `CCCNC(=O)CCc1ccnc(N2CCCC2)c1`, for which the activity change, negative = inhibition in assay [1] is -1.59%; in assay [2], -5.78%; in assay [3], -23.4%; in assay [4] it was -9.47%; in assay [5], -16.8%.
In the case of `Cn1cnc(S(=O)(=O)N2C[C@@H](Oc3ccccc3)C[C@H]2C(=O)N2CCOCC2)c1`, the activity change, negative = inhibition in assay [1] is -0.609%; in assay [2] it was -1.52%; in assay [3], 0.473%; in assay [4], -0.771%; in assay [5], -6.6%.
For the molecule `Cc1ccc(C(=O)N2CC[C@@](C)(O)[C@@H](Cc3ccccc3)C2)cc1C`, the activity change, negative = inhibition was -2.18% in assay [1]; -3.28% in assay [2]; -1.06% in assay [3]; -11% in assay [4]; -0.28% in assay [5].
Consider `COc1cc(Nc2ncc(F)c(Nc3ccc4c(n3)NC(=O)C(C)(C)O4)n2)cc(OC)c1OC`, for which the activity change, negative = inhibition is -14.7% in assay [1]; -4.95% in assay [2]; -12% in assay [3]; -23.2% in assay [4]; -15.6% in assay [5].
In the same order, the values of `CCCCCCc1cccc(NC(=O)[C@H](N)CCP(=O)(O)O)c1` are 2.87%, 3.56%, 13.9%, -7.79% and 6.55%.
Taken in the same sequence, the figures for `Cc1ccc(N2C(=O)c3cc(C(C)(C)C)nn3CC2(C)C(=O)NC2CCCCC2)cc1C` (stereo not given) were -13.1%, -2.29%, -5.08%, -20.3% and -3.27%.
`CCOc1ccc(C(=O)Cn2nc3n(C)c(=O)c4ccc(C(=O)NC5CCCCC5)cc4n3c2=O)cc1`: the activity change, negative = inhibition was -4.03% in assay [1]; -2.84% in assay [2]; -2.77% in assay [3]; 6.51% in assay [4]; -1.31% in assay [5].
In the same order, the values of `COc1ccc(C(=O)n2c(C)c(Cc3cccc(O[C@@H](C)C(=O)O)c3)c3cc(OC(F)(F)F)ccc32)cc1` are -38.6%, 5.06%, 2.31%, -37.1% and -0.929%.
Turning to `CCCNC(=O)c1ncn2c1C(=O)N(C1CC1)C(C)(C(=O)NCc1ccccc1OC)C2` (stereo not given), the activity change, negative = inhibition was -3.29% in assay [1]; 0% in assay [2]; 2.06% in assay [3]; -3.91% in assay [4]; 0.084% in assay [5].
In the same order, the values of `CC(C)OCCCn1c(=O)c2ccccc2n2c(SCc3ccc(Cl)cc3)nnc12` are -7.96%, 2.83%, 6.5%, -7.98% and 5.65%.
With `CCOc1ccccc1NC(=O)N1Cc2c(sc3c2CCCC3)-n2cccc2C1c1cccc(OC)c1` (stereo not given), the activity change, negative = inhibition in assay [1] is -7.32%; in assay [2], 2.7%; in assay [3], 0.565%; in assay [4], -10.5%; in assay [5], 1.48%.
As to `CCCC1c2ccc(C)n2CCN1C(=O)Nc1ccc(OC)cc1OC` (stereo not given), the activity change, negative = inhibition was -1.43% in assay [1]; 8.4% in assay [2]; -6.88% in assay [3]; 3.4% in assay [4]; -4.15% in assay [5].
Consider `O=C(Cc1ccc(F)cc1)NC1CCN(c2cc(-c3ccccc3)[nH]n2)CC1`, for which the activity change, negative = inhibition is -5.17% in assay [1]; -18.5% in assay [2]; -3.32% in assay [3]; -16.8% in assay [4]; -5.93% in assay [5].
`CCCn1c(=O)c2ccc(C(=O)NC(C)C)cc2n2c(SCC(=O)Nc3ccccc3OC)nnc12`: the activity change, negative = inhibition is 1.51% in assay [1]; 2.28% in assay [2]; 6.51% in assay [3]; -3.81% in assay [4]; 0.103% in assay [5].
Taken in the same sequence, the figures for `CC(=O)Nc1c2n(c3ccc(F)cc13)CC(C)(C(=O)NC1CCCC1)N(c1ccc(C)cc1C)C2=O` (stereo not given) were -0.477%, 0.991%, 2.25%, 0.74% and 0.329%.
Turning to `O=C1Nc2ccccc2-c2nc3ccccc3c(=O)n2-c2c(O)cccc21`, the activity change, negative = inhibition was -1.83% in assay [1]; -5.79% in assay [2]; 2.67% in assay [3]; -12.2% in assay [4]; -8.94% in assay [5].
Regarding `CCCN1C(=O)c2c(C(=O)NCc3ccc(OC)cc3)ncn2CC1(C)C(=O)NC1CCCC1` (stereo not given), the activity change, negative = inhibition in assay [1] turned out to be 3.67%; in assay [2] it was 0.743%; in assay [3], 7.27%; in assay [4] it was 1.16%; in assay [5], 11.8%.
As to `COc1cccc(-c2ccc(C(=O)NCCNC(=O)c3ccccc3OC)cc2)c1`, the activity change, negative = inhibition in assay [1] was -11.4%; in assay [2], 0.323%; in assay [3], -2.19%; in assay [4], -8.75%; in assay [5], -0.887%.
Consider `COc1ccc(-c2cc3n(n2)CC(C)(C(=O)NCc2ccccc2)N(C2CC2)C3=O)cc1` (stereo not given), for which the activity change, negative = inhibition was -5.66% in assay [1]; 0% in assay [2]; 0.428% in assay [3]; 1.18% in assay [4]; -1.96% in assay [5].
For the molecule `COc1ccc2cc3n(c2c1)CC(C)(C(=O)NCC1CCCO1)N(Cc1cccs1)C3=O` (stereo not given), the activity change, negative = inhibition was determined as 9.09% in assay [1]; 2.19% in assay [2]; 6.42% in assay [3]; 13.1% in assay [4]; 6.27% in assay [5].
Taken in the same sequence, the figures for `CC1CCCC(NC(=O)C2c3cccn3CC(=O)N2c2ccc(Cl)cc2)C1C` (stereo not given) were 1.21%, 0.643%, -2.94%, -1.04% and -4.65%.
In the case of `COc1ccc2cc3n(c2c1)CC(C)(C(=O)NC1CCCCC1)N(Cc1ccccn1)C3=O` (stereo not given), the activity change, negative = inhibition in assay [1] was -2.02%; in assay [2], 1.42%; in assay [3] it was -0.38%; in assay [4] it was -15.7%; in assay [5] it was -2.7%.
Taken in the same sequence, the figures for `CCCC1c2ccc(C)n2CCN1C(=O)Nc1ccc(CC(=O)OCC)cc1` (stereo not given) were -1.13%, 6.32%, -11.9%, 2.55% and -6.75%.
On to `CCC(C)NC(=O)c1ccc2c(=O)n(C)c3nn(CC(=O)NCc4ccccc4Cl)c(=O)n3c2c1` (stereo not given), for which the activity change, negative = inhibition is 1.42% in assay [1]; 0% in assay [2]; 2.73% in assay [3]; -9.41% in assay [4]; -1.4% in assay [5].
For `O=C(/C=C/c1ccc(O)cc1)OC[C@H]1O[C@H](O[C@@]2(CO)O[C@@H](CO)[C@H](O)[C@H]2O)[C@H](O)[C@@H](O)[C@@H]1O`, the activity change, negative = inhibition in assay [1] is 3.13%; in assay [2] it was 1.63%; in assay [3], 9.6%; in assay [4], -12.8%; in assay [5], 3.21%.
In the case of `COC(=O)CC(O)CC(O)/C=C/c1c(C)ccc2c1C(O)CC(C)C2` (stereo not given), the activity change, negative = inhibition in assay [1] is 0.21%; in assay [2], 7.28%; in assay [3] it was 10.9%; in assay [4], -4.82%; in assay [5] it was 3.71%.
For the molecule `CCOC(=O)CNC(=O)C1(C)Cn2c(ccc2-c2ccco2)C(=O)N1Cc1ccc(OC)cc1` (stereo not given), the activity change, negative = inhibition was -0.8% in assay [1]; 1.85% in assay [2]; 4.52% in assay [3]; 5.66% in assay [4]; 0.89% in assay [5].
